Some of the results follow. At the low end of the ranking the order means little.

The target in the assay is GST-SBP-SLBP (stem-loop binding protein) (UniProt Q14493). The assay is described as follows: targeted RNA Bind-n-Seq.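 Further: DESeq read counts versus GST-SBP nonspecific binding control pulldown.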 The settings on record: RBNS binding buffer: 25 mM Tris pH 7.5, 150 mM KCl, 3 mM MgCl2, 0.1% Tween, 0.5 mg/mL BSA, 1 mM DTT; 27 nM protein, 750 pM RNA pool; temperature not stated; high values mean tight binding.
Take “GGUCACGUCUCAAUCAACUCAAUGUCAGGAGUUUUCUCCUGCUUUUUCAACAGCUCGCAGUCAAG”: the binding signal (log2 fold change) stood at 0.15.
Consider “GGUCACGUCUCAAUCAACUCCACAGAGGGGGGGAAAACCCCUUUACCCUCACUAUCAACAGCUCGCAGUCAAG”, for which the binding signal (log2 fold change) is -0.184.
In the case of “GGUCACGUCUCAAUCAACUCUAUCUCCAGGGAAAACCCUGGCAUACUCAACAGCUCGCAGUCAAG” it was 0.00975.
In the case of “GGUCACGUCUCAAUCAACUCAUCUCCCAGGGAAAGCCCUGGCAAAUUCAACAGCUCGCAGUCAAG” it was 0.197.
In the case of “GGUCACGUCUCAAUCAACUCAUCCUCCAGGGAAAUCCCUGGCUAAUUCAACAGCUCGCAGUCAAG” it was 0.108.
On to “GGUCACGUCUCAAUCAACUCAUUUUCCAGGGAAAUCCCUGGUUUAUUCAACAGCUCGCAGUCAAG”, for which the binding signal (log2 fold change) was -0.0607.
With “GGUCACGUCUCAAUCAACUCAUCUCCAGGAGUUUCCUCCUGUAUAUUCAACAGCUCGCAGUCAAG”, the binding signal (log2 fold change) was -0.0762.
Consider “GGUCACGUCUCAAUCAACUCAGUUUCAGGAGUUUCCUCCUGCUUAUUCAACAGCUCGCAGUCAAG”, for which the binding signal (log2 fold change) was -0.0357.
In the case of “GGUCACGUCUCAAUCAACUCUUCGUCAGGAGUUUUCUCCUGCUAUCUCAACAGCUCGCAGUCAAG” it was -0.0622; in that of “GGUCACGUCUCAAUCAACUCAUCCUCCAGGGAAAUCCCUGGCUAUUUCAACAGCUCGCAGUCAAG”, -0.0352; in that of “GGUCACGUCUCAAUCAACUCCCCAGAGGGGGGGAAAACCCCUUUGCCCUCAUAUUCAACAGCUCGCAGUCAAG”, 0.119.
In the case of “GGUCACGUCUCAAUCAACUCUUCCUCCAGGGAAAGCCCUGGUUAAUUCAACAGCUCGCAGUCAAG” it was -0.0591; in that of “GGUCACGUCUCAAUCAACUCAGUCUCAGGAGUUUACUCCUGCAUAUUCAACAGCUCGCAGUCAAG”, 0.013; in that of “GGUCACGUCUCAAUCAACUCUACUUCCAGGGAAACCCCUGGCAUACUCAACAGCUCGCAGUCAAG”, 0.0751.
The figure for “GGUCACGUCUCAAUCAACUCUUCUUCCAGGGAAACCCCUGGCUUUCUCAACAGCUCGCAGUCAAG” is -0.0101; for “GGUCACGUCUCAAUCAACUCAAUCGCAGGAGUUUUCUCCUGGUUUUUCAACAGCUCGCAGUCAAG” it is 0.0408; for “GGUCACGUCUCAAUCAACUCAUUUCCCAGGGAAAGCCCUGGCUUUUUCAACAGCUCGCAGUCAAG” it is -0.254.
As for “GGUCACGUCUCAAUCAACUCAUCUCCAGGAGUUUCCUCCUGCUAAUUCAACAGCUCGCAGUCAAG”, the binding signal (log2 fold change) was -0.0268.
As for “GGUCACGUCUCAAUCAACUCAAGUCCCAGGGAAACCCCUGGCAAUCUCAACAGCUCGCAGUCAAG”, the binding signal (log2 fold change) was -0.153.
Take “GGUCACGUCUCAAUCAACUCAGUCUCAGGAGUUUCCUCCUGCUAUCUCAACAGCUCGCAGUCAAG”: the binding signal (log2 fold change) turned out to be 0.0706.
Take “GGUCACGUCUCAAUCAACUCUCUAGAGGGGGGGAAAACCCCUUUGCCCUCGUAAUCAACAGCUCGCAGUCAAG”: the binding signal (log2 fold change) is -0.268.
The figure for “GGUCACGUCUCAAUCAACUCAUACGAGGGGGGGAAAACCCCUUUACCCUCUCCAUCAACAGCUCGCAGUCAAG” is 0.329; for “GGUCACGUCUCAAUCAACUCUACUCCAGGAGUUUUCUCCUGCUUAUUCAACAGCUCGCAGUCAAG” it is 0.0693.
For “GGUCACGUCUCAAUCAACUCUCAAGAGGGGGGGAAAACCCCUUUACCCUCCACAUCAACAGCUCGCAGUCAAG”, the binding signal (log2 fold change) was 0.085.
The figure for “GGUCACGUCUCAAUCAACUCAACUCCAGGAGUUUACUCCUGUUUAUUCAACAGCUCGCAGUCAAG” is 0.152.
For the sequence “GGUCACGUCUCAAUCAACUCCCUCGAGGGGGGGAAAACCCCUUUACCCUCACAAUCAACAGCUCGCAGUCAAG”, the binding signal (log2 fold change) was 0.076.
As to “GGUCACGUCUCAAUCAACUCAUAAGAGGGGGGGAAAACCCCUUUACCCUCAAAUUCAACAGCUCGCAGUCAAG”, the binding signal (log2 fold change) was -0.5.
Regarding “GGUCACGUCUCAAUCAACUCAAUCUCAGGAGUUUCCUCCUGCUAUGUCAACAGCUCGCAGUCAAG”, the binding signal (log2 fold change) turned out to be 0.141.
In the case of “GGUCACGUCUCAAUCAACUCAACUCCAGGAGUUUUCUCCUGCUUUUUCAACAGCUCGCAGUCAAG” it was -0.095.
Regarding “GGUCACGUCUCAAUCAACUCAUCCGCAGGAGUUUACUCCUGGUAUCUCAACAGCUCGCAGUCAAG”, the binding signal (log2 fold change) stood at 0.0251.
The figure for “GGUCACGUCUCAAUCAACUCAACUUCAGGAGUUUCCUCCUGCUUACUCAACAGCUCGCAGUCAAG” is 0.125; for “GGUCACGUCUCAAUCAACUCUAUCUCAGGAGUUUACUCCUGUAAUUUCAACAGCUCGCAGUCAAG” it is 0.0635; for “GGUCACGUCUCAAUCAACUCAUUCUCAGGAGUUUUCUCCUGUAUUUUCAACAGCUCGCAGUCAAG” it is 0.152.
The figure for “GGUCACGUCUCAAUCAACUCAACUUCAGGAGUUUACUCCUGUUUUUUCAACAGCUCGCAGUCAAG” is -0.137.
As to “GGUCACGUCUCAAUCAACUCUUUCUCAGGAGUUUCCUCCUGCUAAUUCAACAGCUCGCAGUCAAG”, the binding signal (log2 fold change) was -0.0291.
The figure for “GGUCACGUCUCAAUCAACUCAACUUCCAGGGAAAGCCCUGGCAAUCUCAACAGCUCGCAGUCAAG” is 0.108.
The figure for “GGUCACGUCUCAAUCAACUCUCCUGAGGGGGGGAAAACCCCUUUACCCUCUAUUUCAACAGCUCGCAGUCAAG” is 0.0761; for “GGUCACGUCUCAAUCAACUCACUAGAGGGGGGGAAAACCCCUUUGCCCUCAACCUCAACAGCUCGCAGUCAAG” it is 0.0561; for “GGUCACGUCUCAAUCAACUCUAUAGAGGGGGGGAAAACCCCUUUGCCCUCACAAUCAACAGCUCGCAGUCAAG” it is -0.318.
In the case of “GGUCACGUCUCAAUCAACUCUUUUUCCAGGGAAAACCCUGGCUAAUUCAACAGCUCGCAGUCAAG” it was -0.371; in that of “GGUCACGUCUCAAUCAACUCUUUUUCAGGAGUUUACUCCUGCUAUCUCAACAGCUCGCAGUCAAG”, 0.178; in that of “GGUCACGUCUCAAUCAACUCAUCUCCCAGGGAAACCCCUGGCAUUUUCAACAGCUCGCAGUCAAG”, -0.34.
Consider “GGUCACGUCUCAAUCAACUCUUCCUCAGGAGUUUACUCCUGUUUAUUCAACAGCUCGCAGUCAAG”, for which the binding signal (log2 fold change) worked out at 0.00555.
In the case of “GGUCACGUCUCAAUCAACUCUUUUUCAGGAGUUUUCUCCUGCAUUUUCAACAGCUCGCAGUCAAG”, the binding signal (log2 fold change) turned out to be 0.0694.
Take “GGUCACGUCUCAAUCAACUCUACUUCCAGGGAAACCCCUGGCAUAUUCAACAGCUCGCAGUCAAG”: the binding signal (log2 fold change) is -0.314.
The figure for “GGUCACGUCUCAAUCAACUCCCUCGAGGGGGGGAAAACCCCUUUACCCUCACUCUCAACAGCUCGCAGUCAAG” is 0.0176; for “GGUCACGUCUCAAUCAACUCUAUUCCCAGGGAAAGCCCUGGUUUACUCAACAGCUCGCAGUCAAG” it is 0.134.

(Values after article PMC5892938.)
